The structures appear in SMILES notation. Some of the results follow.

The test system of this test is S. aureus RN4220. Kind of test: growth inhibition call (relative growth <= 0.2). The note with it: 50 µM.
Take `C[C@H](CO)N1C[C@H](C)[C@H](CN(C)C(=O)Nc2ccc3c(c2)OCO3)OCCCC[C@H](C)Oc2ccc(NC(=O)c3ccccc3)cc2C1=O`: the growth inhibition call is “inactive”.

Take `CN(C)CCOc1ccc(C#N)cn1`: the growth inhibition call was “inactive”.

In the case of `Cn1cnc(S(=O)(=O)N[C@@H]2C=C[C@H](CC(=O)Nc3ccccc3)O[C@@H]2CO)c1`, the growth inhibition call was “inactive”.

Take `COc1ccc(CN(C)C[C@@H]2OCCCC[C@@H](C)Oc3ccc(NC(=O)Nc4ccc(OC)cc4)cc3C(=O)N([C@H](C)CO)C[C@H]2C)cc1`: the growth inhibition call was “inactive”.

For `Nc1cnc(Cl)cn1`, the growth inhibition call is “inactive”.

For `CO[C@@H]1CN(C)C(=O)c2ccc(NC(=O)C3CC3)cc2OC[C@@H](C)N(C(=O)CN2CCOCC2)C[C@H]1C`, the growth inhibition call was “inactive”.

Take `COc1ccc(CN(C)C[C@H]2OCCCC[C@@H](C)Oc3ccc(NC(=O)Nc4ccc(OC)cc4)cc3C(=O)N([C@H](C)CO)C[C@@H]2C)cc1`: the growth inhibition call was “inactive”.

Values taken from the antibiotic and cytotoxicity screens of Wong et al. (2023).
